The whole screen tested about 360,000 compounds, of which about 7,500 (2.1%) were called active. Inconclusive means that the source gave no clear call. Such entries were picked first, then a sample of the others. The call rests on the fitted dose curve; in most records, active means well fitted cell-killing curve with a large enough effect; inconclusive means small, poorly fitted or top-dose-only effect, or effect the other way, or another doubt; inactive means no such curve, though single readings can be large or run the other way. No potency is given beside an inconclusive call; the fits are too rough.
Experiment: qHTS for induction of synthetic lethality in tumor cells producing 2HG: qHTS for the HT-1080-IDH1KD cell line;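 on activity, negative = toxicity: 0% = DMSO wells and -100% = cell-free medium wells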
Settings: HT-1080 IDH1 knockdown viability, ATP luminescence, 48 h; activity, negative = toxicity: at 46.1 µM (top of the series) unless noted
Procedure, shortened: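 Cytotoxicity counter-line: IDH1KD HT-1080, 48 h, CellTiter-Glo. Curves classed by r2, magnitude and activity.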
Potency means the concentration at half of the fitted maximal effect; tags describe the fitted curve by direction and shape.

Q: For `CN(CCc1ccccc1)C(C(=O)Nc1ccc2c(c1)OCCO2)c1ccnc2ccccc12` (stereo not drawn), which Potency is on record?
A: The Potency was inconclusive [cytotoxic, single point].

Q: For `CN(Cc1ccccc1)N=Nc1nc[nH]c1C(N)=O`, which “activity, negative = toxicity” value is on record?
A: The value was inactive: -11.8%.

Q: For `CSc1nc2ccc(S(=O)(=O)N3CCCCC3)cc2s1`, which “activity, negative = toxicity” value is on record?
A: Its value is inactive: 2.38%.

Q: For `O=C(NCCC(=O)N1CCN(c2cccc(Cl)c2)CC1)c1ccc(Br)cc1`, which Potency is on record?
A: The Potency was inconclusive [cytotoxic, single point].

Q: For `Cc1ccc(S(=O)(=O)N2C(=O)CCC2C(=O)O/N=C(\N)c2ccc([N+](=O)[O-])cc2)cc1` (stereo not drawn), which “activity, negative = toxicity” value is on record?
A: The value was inactive: 10%.

Q: With `CC(c1ccccc1)N1CCC(CNC(=S)Nc2cccc(Cl)c2)C1` (stereo not drawn) as the compound, how does the Potency read?
A: Its Potency is active: 18.4 µM.

Q: For `O=C(N/N=C/C=C/c1ccccc1)c1n[nH]c2c1CCC2`, which Potency is on record?
A: Its Potency is active: 1.3 µM.

Q: Which “activity, negative = toxicity” value does the source give for `Cc1ccc(N2CC(C(=O)OCC(=O)c3ccc(C)c([N+](=O)[O-])c3)CC2=O)cc1` (stereo not drawn) here?
A: Its value is inactive: 9.93%.

Q: For `CCn1c2ccccc2c2cc(NC(=O)c3cc(OC)cc(OC)c3)ccc21`, which Potency is on record?
A: Its Potency is active: 1.46 µM.

Q: Which Potency does the source give for `O=C1NC2(C=Cc3c(ccc4ccccc34)O2)Oc2ccccc21` (stereo not drawn) here?
A: The Potency was inconclusive [cytotoxic, single point].

Q: Which “activity, negative = toxicity” value does the source give for `N#Cc1ccc(CSc2nnc(NC(=O)CCc3nc4ccccc4c(=O)[nH]3)s2)cc1` here?
A: Its value is inactive: 3.15%.

Q: Which Potency does the source give for `C=CC[C@H](CC(=O)N(CCO)Cc1ccccc1)C(=O)N[C@H](COC(=O)[C@@H](CC=C)Cc1ccc(F)cc1)Cc1c[nH]c2ccccc12` here?
A: Its Potency is active: 20.6 µM.

Q: Which Potency does the source give for `Cc1[nH]c2c(C)cccc2c1CCNC(=O)c1ccc2c(c1[N+](=O)[O-])C(=O)c1ccccc1C2=O` here?
A: The Potency was active: 20.6 µM.

Q: Which “activity, negative = toxicity” value does the source give for `O=C1C[C@@H]2C(=O)N(c3ccccc3)C(=O)[C@@H]2[C@@H]2CN(S(=O)(=O)c3ccccc3)[C@@H](c3ccccc3)[C@H]12` here?
A: The value was inactive: 7.76%.

Q: Which Potency does the source give for `Cc1occc1C(=O)N/N=C/c1ccc(-c2ccccc2)cc1` here?
A: Its Potency is active: 6.51 µM.

Q: With `Cn1c(=O)c(C(=O)NNC(=O)c2ccccc2F)c(O)c2ccccc21` as the compound, how does the Potency read?
A: Its Potency is inconclusive [cytotoxic, partial curve].

Q: With `CCN(CC)S(=O)(=O)c1ccc(C(=O)NCCN2C(=O)S/C(=C\c3cccnc3)C2=O)cc1` as the compound, how does the “activity, negative = toxicity” value read?
A: The value was inactive: -8.01%.

Q: For `O=C(/C=C/Nc1ccc(Br)cc1F)c1ccco1`, which Potency is on record?
A: Its Potency is inconclusive [cytotoxic, single point].

Q: Which “activity, negative = toxicity” value does the source give for `CCOC(=O)c1[nH]c2ccc(Cl)cc2c1NC(=O)/C=C/c1ccc2c(c1)OCO2` here?
A: The value was inactive: 0.368%.

Q: For `Cc1cc(C(=O)N/N=C/c2cc([N+](=O)[O-])cc(C)c2O)n[nH]1`, which Potency is on record?
A: The Potency was active: 16.4 µM.

Q: For `CO/N=C1\CCCc2c(C(=O)NN)sc(SC)c21`, which Potency is on record?
A: The Potency was active: 16.4 µM.

Q: With `Cc1cc(C(=O)COc2ccccc2C(N)=O)c(C)n1CC1CCCO1` (stereo not drawn) as the compound, how does the Potency read?
A: The Potency was inconclusive [cytotoxic, partial curve].

Q: For `COc1cc(-c2noc(C)c2/C=C/c2ccc(OC(C)=O)cc2)cc(OC)c1OC`, which Potency is on record?
A: Its Potency is active: 0.517 µM.

Q: With `Cc1cccc(C(=O)NC(=S)NNC(=O)c2cccs2)c1` as the compound, how does the Potency read?
A: The Potency was inconclusive [cytotoxic, single point].

Q: With `CC(C)(C)c1ccc(Cn2ccc(-c3ccc4c(c3)OCO4)n2)cc1` as the compound, how does the “activity, negative = toxicity” value read?
A: The value was inactive: 0.616%.

Q: For `O=C1/C(=C/N(C(=O)c2ccco2)c2ccc(Br)cc2)Sc2ccccc21`, which Potency is on record?
A: Its Potency is inconclusive [cytotoxic, single point].

Q: Which Potency does the source give for `O=Nc1c(O)n(Cc2ccc(Cl)cc2Cl)c2ccccc12` here?
A: The Potency was inconclusive [cytotoxic, partial curve].

Q: Which “activity, negative = toxicity” value does the source give for `O=[N+]([O-])c1ccccc1-c1nc(-c2ccc(Br)o2)no1` here?
A: The value was inactive: -0.923%.

Q: For `CCn1c2ccccc2c2cc(NC(=O)COC(=O)c3cc(S(N)(=O)=O)c(Cl)cc3Cl)ccc21`, which Potency is on record?
A: Its Potency is inconclusive [cytotoxic, partial curve, poor fit].

Q: Which Potency does the source give for `CCCCNC(=S)Nc1ccc([N+](=O)[O-])cc1` here?
A: Its Potency is inconclusive [cytotoxic, single point].

Q: For `COc1cc(C(=O)N(C)CCOc2ccccc2)ccc1OCC(=O)Nc1cccc(C(F)(F)F)c1`, which “activity, negative = toxicity” value is on record?
A: Its value is inactive: -26.2%.

Q: For `CN1C(=O)CC(n2c(CO)nc3ccccc32)C1=O` (stereo not drawn), which Potency is on record?
A: The Potency was inconclusive [cytotoxic, single point].

Q: For `CC(=O)c1cc(C#N)c(SCc2ccccc2C#N)nc1C`, which Potency is on record?
A: The Potency was inconclusive [cytotoxic, single point].

Q: For `Oc1ccc(C2=NN(c3ccccc3)C(c3ccc(F)cc3)C2)cc1` (stereo not drawn), which Potency is on record?
A: The Potency was active: 25.9 µM.

Q: With `Cc1cc(CN(C)C(=O)CC2C(=O)NCCN2Cc2ccc(-c3ccccc3)cc2)on1` (stereo not drawn) as the compound, how does the “activity, negative = toxicity” value read?
A: Its value is inactive: -2.07%.

Q: Which Potency does the source give for `Cc1ccc(CSc2nnc(SCC(=O)N/N=C/c3c[nH]c4ccccc34)s2)cc1` here?
A: Its Potency is active: 23.1 µM.

Q: With `Clc1ccc(C2=NNC(=NCc3ccccc3)SC2)cc1` as the compound, how does the Potency read?
A: Its Potency is inconclusive [cytotoxic, single point].

Q: Which “activity, negative = toxicity” value does the source give for `CCOC(=O)[C@@H]1[C@H]2COc3ccccc3[C@@H]2N2C(=O)N(c3ccc(Cl)cc3)C(=O)[C@@]12C` here?
A: The value was inactive: -1.22%.

Q: For `Cc1cccc(NC(=O)C2CCN(C(=O)c3ccc(Cl)cc3)CC2)n1`, which “activity, negative = toxicity” value is on record?
A: Its value is inactive: -12.6%.

Q: Which Potency does the source give for `CC(C)(C)c1ccc(OCCC(=O)Nc2cccc(S(=O)(=O)N3CCOCC3)c2)cc1` here?
A: Its Potency is inconclusive [cytotoxic, single point].

Q: Which “activity, negative = toxicity” value does the source give for `COc1ccccc1NC(=O)c1cc(C)nc2ccccc12` here?
A: Its value is inactive: 0.729%.

Q: With `CCOC(=O)COc1ccccc1/C=C\[N+](=O)[O-]` as the compound, how does the Potency read?
A: Its Potency is active: 2.91 µM.

Q: For `Cn1c(SCC(=O)N(Cc2ccccc2)C(C)(C)C)nc2ccccc21`, which Potency is on record?
A: The Potency was inconclusive [cytotoxic, single point].

Q: Which “activity, negative = toxicity” value does the source give for `Cc1c(NS(=O)(=O)c2cccs2)cccc1-c1nc2cccnc2s1` here?
A: Its value is inactive: 1.76%.

Q: With `COc1ccc2nc(N=Nc3ccc(O)c4ccccc34)sc2c1` as the compound, how does the Potency read?
A: The Potency was active: 5.8 µM.

Q: With `COc1cc(C(=O)N/N=C(\c2ccccc2)c2ccccn2)cc(OC)c1OC` as the compound, how does the Potency read?
A: Its Potency is inconclusive [cytotoxic, full curve].

Q: Which Potency does the source give for `OC(c1ccccc1)(c1nc(-c2ccc3c(c2)OCO3)cs1)C(F)(F)F` (stereo not drawn) here?
A: The Potency was inconclusive [cytotoxic, single point].

Q: With `Cc1ccc2c(C)c(C(=O)NCc3ccc(S(N)(=O)=O)cc3)oc2c1C` as the compound, how does the Potency read?
A: The Potency was inconclusive [cytotoxic, single point].
